Reference: the supplement of paper PMC10126150
Values marked as one replicate rest on one cluster of the flow cell; about a third of the high ones do not repeat.

Tested on: ATP
Assay: switch fluorescence ratio, 500 uM ATP over buffer (Cy3 cluster intensity, sum of 5 cycles each) (fold (ratio)); higher = stronger signal-on switching upon ATP binding; sequences stand for … in TCGTCGGCAGCGTCAGATGTGTATAAGAGACAGTTTTTTTTTTTTTTTTTTTTTTTTT…TC
Settings: aptamer strand: ATP DNA aptamer (quencher-CACCTGGGGGAGTATTGCGGAGGAAGG + anchor), 100 nM annealed; ATP concentration: 500 uM; one replicate
Outline: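 The quencher-labelled ATP aptamer, at 100 nM, was annealed to Cy3-labelled switching-strand clusters on a modified Illumina MiSeq flow-cell. The clusters were imaged in selection buffer, then after 15 min with 500 uM ATP at 22 °C, and this buffer/ATP cycle ran five times with NaOH stripping and re-annealing between runs. Per-cluster fluorescence ratios, summed target-cycle over summed buffer-cycle Cy3 intensity, were averaged per switch-domain sequence. Clusters outside 100-1000 RFU were excluded.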
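Also: ATP exposure 15 min at 22 °C before imaging.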

Row | Sequence | switch fluorescence ratio
1 | TTGTGGCACT | 0.988
2 | AATTGTAATA | 0.958
3 | AGAGGCGCCA | 1.03
4 | GCCATTTGTG | 1
5 | ACATCCAAAC | 0.998
6 | TACCCATGAA | 1.02
7 | GATGTAATTA | 1.02
8 | TGGAACTTT | 0.96
9 | GGGTTATTGC | 0.977
10 | TCGGACAGAA | 1.02
11 | GGGCCTAGGC | 0.963
12 | GTAGTATGTA | 0.981
13 | TAAATCTAAG | 0.969
14 | GGGCGGTGAA | 1.08
15 | CCGGCATCAA | 2.38
16 | CTCGGCGGTG | 1.01
17 | GATGCATCGC | 0.99
18 | CGAGCCGGTC | 0.947
19 | GACTATTCG | 1.01
20 | CTCTATGAAT | 0.993
21 | GGTGATTTAC | 0.972
22 | GCTGTCTACG | 0.995
23 | CAGGCTTAAA | 0.99

Row | Sequence | switch fluorescence ratio
24 | AGCAGCATGC | 1.04
25 | TATAGCCACA | 0.999
26 | CGAAACGAAA | 0.97
27 | TTTGCGCCTG | 0.96
28 | GATACTGTCC | 1.14
29 | TGAGAAAAG | 1.01
30 | TAGGTCCGGC | 1.11
31 | CTTTCATCGT | 1.01
32 | AGATGCTAAG | 1.02
33 | TGATGAAGAA | 1.01
34 | GGTGTGAATA | 0.997
35 | CAGAGGCAGC | 1.09
36 | TGGACCCGTT | 1
37 | CGCAGGGTA | 1.05
38 | CCATGGGTCT | 1
39 | AAAAGAAAAC | 1.08
40 | CGGCAGTACG | 1.8
41 | ACCGAGTCTG | 1.35
42 | GCATACAAGT | 1.03
43 | AGGGGAACAG | 0.969
44 | ATAGGATATT | 0.981
45 | AATATCTTTT | 1.02
46 | CGAAATTGAG | 1.09

Row | Sequence | switch fluorescence ratio
47 | TATGGGTTAG | 0.98
48 | ATTATCTCCT | 1.05
49 | TCTGCCAGG | 1.42
50 | TAGGAGCACC | 1.03
51 | ATTGTATCAC | 0.983
52 | CGGGACAAGA | 0.978
53 | GACTGGCACT | 1.1
54 | AGGTCTGTCG | 1.02
55 | TTCAGGGTGT | 1.17
56 | TATCGTTATG | 0.988
57 | CGATGTGACA | 1.02
58 | GTTACAC | 1.08
59 | GTGAGTCATG | 1.03
60 | TTAAAGCATC | 2.24
61 | CCGAACATCG | 1.11
62 | CAGGGAGGGC | 0.954
63 | TCGGTCTGAG | 0.984
64 | ACGTACACCA | 1.4
65 | CTAACTCAG | 1.04
66 | ACCCAGGCTG | 3.35
67 | CTTTTTTCCG | 1.04
68 | CGGGTACCTG | 1.01
69 | GGGTCCGGCA | 0.985

Row | Sequence | switch fluorescence ratio
70 | GTACGCTTCC | 2.26
71 | GGAGTTCGAT | 0.977
72 | TTTAAAACCC | 0.982
73 | AGCAGATCCG | 1.05
74 | AGATGATGGT | 0.989
75 | AACATCCTAT | 0.998
76 | TAAAGCCGCC | 1.16
77 | TATACTGTCC | 1.27
78 | GTATTATCGT | 0.991
79 | ATTGGTTAAG | 1.02
80 | AAGTAGCCGC | 1.11
81 | TGAGCATTAT | 2.01
82 | ATCAGGGGCC | 1.01
83 | CCAGGCCTAC | 1.31
84 | CGTGTACGGT | 0.963
85 | TCCATTATTG | 1.02
86 | CTATAATTTC | 1.01
87 | GATGTGCGTT | 0.983
88 | TGGGTAGTT | 1.02
89 | GAGTCAAGT | 0.98
90 | GCTCGAGCAA | 1.04
91 | AGGTACCAGG | 1.23
92 | TAAATTTACC | 0.989

Row | Sequence | switch fluorescence ratio
93 | TAGTTACCG | 1.01
94 | TACTTTGTTC | 1.05
95 | CCTCATATGG | 1.14
96 | CTAATACAAA | 1.03
97 | ATTTATACGA | 1.03
98 | AAGAAGAACC | 1.06
99 | CCGAATCCCT | 1.04
100 | TCGTGTTTAA | 0.995
101 | GCTTTTTCGA | 1.04
102 | TCGGACTAAT | 1.24
103 | GGCCAGGCAG | 1.06
104 | GTACTATGCG | 0.997
105 | AACAAAGAAA | 0.937
106 | GATGGTCTCC | 1.02
107 | TGAGGCTCT | 1.02
108 | ATATTTGACT | 1
109 | TCAGGGCC | 1.02
110 | TTTCCAATAT | 1.05
111 | CGTCTCAGAG | 1.05
112 | ATAATAAGTT | 1.02
113 | TATCGGCTAT | 1.02
114 | GGTTCGTTCG | 0.983
115 | GATGCGCTTT | 0.956

Row | Sequence | switch fluorescence ratio
116 | GACATACGAC | 1.47
117 | ACGGACCCCA | 1.43
118 | CGATCGAGTT | 0.959
119 | ATCATGAAAT | 0.975
120 | GATTCGGCA | 0.988
121 | GAGGCGTGAA | 1.02
122 | GGCGCATGGG | 0.989
123 | TGTCTGGAAT | 1.06
124 | GATGATCTAG | 0.986
125 | TTGCCCTAAG | 0.982
126 | GTTTTAGTG | 0.972
127 | AGATGCATCC | 1.01
128 | TTGAAGCTAA | 4.93
129 | GCTGTAAAGT | 1.02
130 | CATCGTCTAA | 0.999
131 | CAGGAATTGG | 0.975
132 | CGTTGAGTTC | 1.01
133 | CTGTTAAAGC | 1.04
134 | TGCGCGACCC | 1.41
135 | AAAATCCGTG | 1.03
136 | ATTGTGGAAA | 1.01
137 | GTGCGTATCT | 0.969
138 | TGCCTTTTGT | 0.985

Row | Sequence | switch fluorescence ratio
139 | TGTTCGTGT | 0.991
140 | GATTTACAGG | 1.03
141 | ATCATTACTG | 1.08
142 | AGTAAGTG | 1.02
143 | CACGGTTCCA | 1.07
144 | TTACCTACCG | 1.27
145 | TTTTGAGCCT | 1.04
146 | TAGGCTTGTA | 1
147 | TCTGGGCCGT | 1
148 | TAGGTTAGCC | 1.01
149 | ACTTGCGTAA | 0.995
150 | CCCGTTGACT | 1.11
151 | GATTGGACTG | 1.03
152 | CTCGCGGCTG | 1.02
153 | GCACAACATA | 1.02
154 | ATTGTGCAG | 1.01
155 | GCAGCATGAA | 1.3
156 | AAATTTACGA | 1.09
157 | AACCCTTAAG | 1.01
158 | TTCTTCAAT | 0.954
